In article PMC13649712, “Role of PER-WDR5 interactions in the mammalian circadian clock” (Nature Communications, 2026):

T1: mouse CRY1 1-496 (PHR) (mouse, UniProt P97784 1-496)
T1 construct: pCoofy27; tag-free after cleavage; also called CRY1-PHR
T1 sequence (looked up): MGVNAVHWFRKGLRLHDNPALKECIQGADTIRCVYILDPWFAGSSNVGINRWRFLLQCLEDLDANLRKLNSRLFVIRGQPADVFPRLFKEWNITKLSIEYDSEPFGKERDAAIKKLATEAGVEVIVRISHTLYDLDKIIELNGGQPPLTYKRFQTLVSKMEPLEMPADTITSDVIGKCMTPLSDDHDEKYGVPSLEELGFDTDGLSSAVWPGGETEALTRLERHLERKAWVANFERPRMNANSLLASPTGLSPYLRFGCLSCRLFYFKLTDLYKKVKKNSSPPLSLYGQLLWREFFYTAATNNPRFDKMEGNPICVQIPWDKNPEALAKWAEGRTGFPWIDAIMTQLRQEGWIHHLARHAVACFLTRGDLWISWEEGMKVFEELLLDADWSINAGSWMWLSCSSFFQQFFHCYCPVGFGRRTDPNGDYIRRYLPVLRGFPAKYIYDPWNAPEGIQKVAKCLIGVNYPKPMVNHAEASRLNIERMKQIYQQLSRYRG

B1: mouse PER1 […] D1197A (domain or fragment)
chain: not shown
notes: also called PER1 D1197A; WBM motif mutant; source: E. coli Rosetta (DE3), purified essentially as the wild-type protein
B2: mouse PER1 […] R1111A (domain or fragment)
chain: not shown
notes: also called PER1 R1111A; WIN motif mutant; source: E. coli Rosetta (DE3), purified essentially as the wild-type protein
B3: mouse PER1 […] R1111A D1197A (domain or fragment)
chain: not shown
notes: also called PER1 R1111A D1197A double mutant; source: E. coli Rosetta (DE3), purified essentially as the wild-type protein
B4: mouse PER1 […] R1111A R1113A (domain or fragment)
chain: not shown
notes: also called PER1 R1111A R1113A WIN site mutant; source: E. coli Rosetta (DE3), purified essentially as the wild-type protein
B5: human MLL1 […] (WIN-SET) (domain or fragment)
chain: not shown
notes: also called MLL1 WIN-SET fragment

Columns and labels:
Settings in all cases: both partners purified
mouse CRY1 1-496 (PHR) = target: T1, mouse CRY1 1-496 (PHR); assay: ITC; MicroCal PEAQ-ITC, 25 °C; 25 mM HEPES pH 7.5, 150 mM NaCl, 5% glycerol, 1 mM β-ME; 750 µM WDR5 (syringe) into 50 µM PER1, PER2 or RbBP5 (cell); 90 µM PER1 or PER2 (syringe) into 8 µM CRY1 1-496 (cell); one-site binding model; mean of triplicates
mouse WDR5 22-334 [1] = target: T2, mouse WDR5 22-334 (mouse, UniProt P61965); assay: as above
mouse WDR5 22-334 [2] = target: T2, mouse WDR5 22-334; assay: SEC; preformed equimolar complexes (PER1 + WDR5 overnight, hMLL1 + WDR5 2 h), 60 µM final, without inhibitor or with the WDR5 WIN site inhibitors Inh-4 or Inh-5 (PER1/WDR5) or Inh-4 (MLL1/WDR5), 1 h on ice; S200 10/300; 25 mM HEPES pH 7.5, 150 mM NaCl, 5% glycerol, 2 mM DTT

| Binder | Kd (mouse CRY1 1-496 (PHR)) [µM] | Kd (mouse WDR5 22-334 [1]) [µM] | binding result (mouse CRY1 1-496 (PHR)) | binding result (mouse WDR5 22-334 [2]) |
| --- | --- | --- | --- | --- |
| B1 | 0.157 | 5.7 |  |  |
| B2 |  | 13.5 | binds |  |
| B3 | 0.196 | 16.2 |  |  |
| B4 |  | > 100 |  |  |
| B5 |  |  |  | binds |
